Here are results for 79 sequences from the supplement of paper PMC10126150.

This data set deals with ATP. As to the kind of experiment: switch fluorescence ratio, 500 uM ATP over buffer (Cy3 cluster intensity, sum of 5 cycles each) (fold (ratio)); higher = stronger signal-on switching upon ATP binding; sequences stand for … in TCGTCGGCAGCGTCAGATGTGTATAAGAGACAGTTTTTTTTTTTTTTTTTTTTTTTTT…TC. The conditions noted are these: aptamer strand: ATP DNA aptamer (quencher-CACCTGGGGGAGTATTGCGGAGGAAGG + anchor), 100 nM annealed; ATP concentration: 500 uM; one replicate. The method in brief: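 Five buffer/ATP imaging cycles were run on Cy3-labelled switching-strand clusters on a modified Illumina MiSeq flow-cell, with NaOH stripping and re-annealing between cycles. In each cycle, clusters annealed to 100 nM quencher-labelled ATP aptamer were imaged in selection buffer, then after 15 min with 500 uM ATP at 22 °C. Per cluster, the fluorescence ratio is summed target-cycle over summed buffer-cycle Cy3 intensity, averaged per switch-domain sequence. Only clusters within 100-1000 RFU were kept.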

Values marked as one replicate rest on one cluster of the flow cell; about a third of the high ones do not repeat.
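Further: ATP exposure 15 min at 22 °C before imaging.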

Take CTCTATTTTG: the switch fluorescence ratio stood at 1.02.

For the sequence GTTGAGAATG, the switch fluorescence ratio was found to be 0.964.

Consider GTAAGGAACG, for which the switch fluorescence ratio was 0.985. As for GGGTCAAGAA, the figure is 0.983; as for TAGCCGAGGG, 0.992.

GACAGTGAGC: the switch fluorescence ratio was 1.01. As for TGTATGTGTG, the figure is 0.916; as for TATAGTCTAG, 0.971.

Consider GTAGCCTGAC, for which the switch fluorescence ratio turned out to be 1.88. As to CTCCCCATAT, the switch fluorescence ratio was determined as 2.47. Regarding ATCACTGCAT, the switch fluorescence ratio was 1.16. As for CGGAGTCCGT, the figure is 0.987; as for AGGACCATTT, 1.02; as for CCTGGATATA, 0.975.

TCTGGGATAA: the switch fluorescence ratio turned out to be 1.03. As to TATAAGTCAT, the switch fluorescence ratio is 1. For GGGATTTAAG, the switch fluorescence ratio was 1.02. On to ATAAGTTACA, for which the switch fluorescence ratio was found to be 1.13. To GGGGAGCATA belongs 1.11; to GGCGGTAAGG, 1; to GTAACCTGTA, 1.28. To AGATCACGGG belongs 0.968; to GCGTAAAAGT, 0.962; to GGTACTTATA, 1.01. As for TGCCTCACGG, the figure is 1.04. On to ACCAGGCCGA, for which the switch fluorescence ratio turned out to be 1.02. For the sequence TATACTTTTC, the switch fluorescence ratio was found to be 1.04. To GCTGGCACAG belongs 1; to CCGTACCGGT, 1.03; to TTGATCTATG, 1. On to TACGAGTCTG, for which the switch fluorescence ratio was determined as 0.998. Turning to TGTGATCTGC, the switch fluorescence ratio came out at 1.01. As for TTAACCGAAT, the switch fluorescence ratio worked out at 1.05.

In the case of AGACCGTGGT, the switch fluorescence ratio stood at 1.01.

On to GATCGCTATT, for which the switch fluorescence ratio turned out to be 1.16. As for CGTAATTAAT, the figure is 0.945; as for TGTTTAAGTC, 0.946; as for CTATACGTAA, 1.48. As for TTCAGGGGAT, the figure is 0.999; as for GAGCAGGACA, 1.09.

For the sequence AGGGTACAGG, the switch fluorescence ratio turned out to be 1.11. CAATAGCAGT: the switch fluorescence ratio came to 1.12. To GGATCGCATC belongs 1.14; to ACTACTGGGC, 1.12.

As to TGACAACG, the switch fluorescence ratio came to 0.957. To TGTTGATCTT belongs 0.975. Take AATCCAGCGG: the switch fluorescence ratio turned out to be 1.01.

Turning to AATAATGGG, the switch fluorescence ratio amounted to 1.02. Turning to ATTCAGTCAG, the switch fluorescence ratio was 0.996.

As for TAAGGTGTAC, the switch fluorescence ratio amounted to 1.07. As for CTAGGGGCAT, the figure is 1.03; as for GACATTGGTC, 0.978; as for ACTGACCCGG, 1.13. For GACTTCAAGT, the switch fluorescence ratio was found to be 1.03. To GGGTAGTACT belongs 0.988; to GTTGTACAAT, 0.98; to TACGGTCG, 1.01. To TTGGGTGACA belongs 1.02. For the sequence TTAGCCAAGT, the switch fluorescence ratio is 0.969. To CTTTAAGACT belongs 1; to GCGGGCTCCG, 1.09. To TCGACGCTTT belongs 2.03.

For ATGTCCAATT, the switch fluorescence ratio stood at 1.01. GAGAATTACG: the switch fluorescence ratio worked out at 1.01. TTTCAATTAT: the switch fluorescence ratio worked out at 0.994.

As to TATAAACTCC, the switch fluorescence ratio came to 1.13.

Turning to GATCTGGCTC, the switch fluorescence ratio was determined as 0.964. As for TGAAAGCGGG, the figure is 1; as for GAAAGAAAGA, 0.958; as for TTGGTGGTCG, 0.957. Take GGATCAATT: the switch fluorescence ratio was 1. Regarding AGCCGAATGT, the switch fluorescence ratio stood at 1.01. To CTGTGTCCCA belongs 0.947. With CCGGTGTTGG, the switch fluorescence ratio turned out to be 1.04. To GCTACAGACA belongs 1.08; to TGGCTTACA, 1.

As to AAGTGTGAG, the switch fluorescence ratio was 1.01.

As for ATAGCATTCG, the switch fluorescence ratio was found to be 1.04. Take AAGAGTGAGG: the switch fluorescence ratio came out at 0.976.
